Assay results from the RNAGym collection of RNA variant scans (doi:10.7554/elife.90254).
The source gives no read counts; variants with many changes may rest on few reads.

B1: LINE1-full (parent)
chain: UACGUAGGUGGUUUUCCCCUGAUAGUGCUAAGGGGGCCUGGAAGUUUGGACUGGGCAGAGCUCAACACAGCGUGGCAAAGUGGCUGUGGCUAGACUGCCUCUCUGGAUUCCUCGUCACUCAGCAGGGCAUCUCUGAGAGAAAUGCC

Variants of: B1
Assay: self-cleavage, relative activity (ratio to wild type); higher = more cleavage; in vitro, sequencing; the parent is a self-cleaving ribozyme

Variant | self-cleavage
A42G U132A C145A | 1.67
U26C U62A U115C | 0.15
U62C A124G U130C | 0.1
U12C U13C U100C U102C | 0
U12C A69C G82A | 0.09
G55U A64U A94G A136G | 0.06
A2G G36A U52A U119A | 0.41
U12C U14C U52C A121G | 2.7
U52C G93U A117G | 0.02
A79U U100C U119A | 2.22
U14C A67U C131U | 0.18
U39A U73A U104A A142G | 0.57
U15A A24U U81C A117G | 0.71
U9C U73C G125A | 1.88
U96C U134C C146A | 0.4
A64G G93U A121C | 0.26
U12G A24U U108C | 0
U13C U20C C61A A141G | 0.06
U39C U47A U62A U100C A142G | 0
U115C A140G A141G | 0.95
A30G U62C U109A U134C | 0.07

Variant | self-cleavage
U9C U12G U29C | 0.88
U46C G83A U100A A117G | 0.55
U85C A94U A121G | 0
U14A U47A G137A | 1
C19U A22U A69G | 0
U62C A64U A121U | 0.07
U12C A24G C103U U115C A142G | 1.89
U47A U115C U130C | 1.97
U15C A24G U47C | 1.02
U47G A69G U143A | 0
U15C U62C G93A C99U U108A | 0.05
U62A A78G A92U A94G | 0
U46C G58A A67G U81C | 0.72
U23C U39A C95U | 0.33
U1C A43G C61U | 0.06
A59G A65G A142G | 0
U13C U46C A65U | 0.24
C56U A57C A65G G122U U132C | 0.09
A65G U115C A140G | 0.08
U46C U102C A140G | 2.15
G89A U109C U132C | 0.04

Variant | self-cleavage
A6G U9C A141G | 0
G7C U13A U39A | 1.07
U15C U26C A79G U100C A136G | 2.12
U26C A59G U62C U130C | 0
U85C U87C U132C | 0
A22G A65G U119C | 0
A22G U104A U134A | 1.48
U46A A69U A94G A142C | 0.03
U14C C37A A57G A92U U112C | 0.43
U81C U130C C145U | 0.62
U13C C51U A117C | 1.42
U15A U39C A92G | 0.88
A69G U87A U102C A121U | 0.07
A64U G93A A94G A117G U132C | 0
U85C U91A C131G | 0.11
A22G U132C A142G | 1.37
U109C C111U A136G | 1.2
A43G U52A A141G | 1.46
U5A U26A A141G | 0.17
A77G U130C A136U | 2.81
U9C U15C U85G U87A G106U | 0.17

Variant | self-cleavage
A30G C56G U100C | 0.47
A42U U91C U96C U100C | 0.53
C68A A69U A78U A107G A124G A138G | 0.01
G4U G58U C101A A141G | 0.14
U13C C37A U73C A92G A107G | 0.18
U14C A67G A129U A140G | 0.72
A22G U87A U96C | 0.18
U47G U104C A140G | 1.88
G40U A59G A92U A138G | 0
U1A C116U C118U | 1.36
U14C C63U A69U U119C | 0.05
A30U U47A G48A A94G A117G | 0.33
U23C A42G U46C C118G G125U | 1.06
U26C U45C A136U | 1.34
A59G G82A A94G U134A | 0.26
U15A U26C U87C | 0.51
A42G A64G U112C U143A | 0
C3U U9A U29A A117G | 1.15
U14C U87A A117U | 0.02
U1A U20A U73C U104A | 0.92
A65G U104A U134C A141G | 0.12
